Measurements reported in PubChem BioAssay AID1508624 (National Center for Advancing Translational Sciences (NCATS), 2021).
In all, about 48,000 compounds went through this assay and about 120 (0.25%) were called active. Not shown: some 4% with an inconclusive outcome. Calls follow the shape of the dose curve; as a rule, active = well fitted activation curve with a large enough effect; inconclusive = small, poorly fitted or top-dose-only effect, or another doubt; inactive = no such curve, though single readings can be large or run the other way. The list shows a part of the results.

Test: Primary qHTS for Identification of Small Molecule Activators of Huntingtin-Antisense Promoter Activity; also: nearly all actives have a fitted effect of over 55% in size
Conditions: HEK293 HTT-AS promoter firefly luciferase reporter, 24 h; series mostly up to 57.5 µM; activity change, positive = activation: at the top concentration
How it was run: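 HEK293 luciferase promoter-reporter cells (2,500/well) plated 24 h, then compounds added at up to 57.5 uM final for 24 h at 37 °C. Firefly luminescence by Dual-Glo, normalized to vehicle (0%) and zero RLU (-100%).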

Activity change, positive = activation, inactive:
N#Cc1cccc(NC(=O)C2CCN(c3cnccn3)CC2)c1 -17.8%
CC(=O)Nc1ccc(NC(=O)c2cc3c(=O)n(Cc4cccnc4)ccc3nc2C)cc1 -6.33%
Cc1ccc2c(c1)c(=O)c(C(=O)c1ccccc1)cn2Cc1ccccc1F -26.5%
CCOc1cccc(C(=O)Nc2nnc(S(=O)(=O)N(C)c3ccc(C)cc3)s2)c1 -32%
COc1ccc(NC(=O)CC2C(=O)N(c3ccccc3)C(=O)N2CCC2=CCCCC2)cc1 (centres undefined) -22.6%
COc1cc(NC(=O)C2CCN(S(=O)(=O)c3c(C)noc3/C=C/c3cccs3)CC2)cc(OC)c1 -20.2%
COc1ccc(S(=O)(=O)N(CC(=O)Nc2ccc(OC)cc2OC)c2ccc(Cl)cc2)cc1 -28.5%
CCN1C(=O)c2ccccc2S(=O)c2ccc(C(=O)NCc3ccc(C)cc3)cc21 (centres undefined) -25.6%
Cc1c(CNC2CCC(C)CC2)c(C(=O)O)c(C)n1Cc1ccccc1F (centres undefined) -14%
COc1ccc(/C=C(/C#N)c2nc(-c3cc4ccccc4oc3=O)cs2)cc1 1.14%
CCC1CN(C(=O)Nc2ccccc2C(F)(F)F)c2ccccc2O1 (centres undefined) 1.8%
CCOc1ccccc1C1C(C(N)=O)=C(C)Nc2nc(-c3ccccc3Cl)nn21 (centres undefined) -6.86%
Cc1cccc(N2CC(c3nc4ccc(C)cc4[nH]3)CC2=O)c1 (centres undefined) -5.26%
COc1ccccc1-c1nc2c(c(SCC(=O)Nc3ccccc3F)n1)Cc1c(CO)cnc(C)c1O2 -28.1%
COc1ccccc1N1CCN(CCCNC(=O)c2nnc(Cc3c(F)cccc3Cl)o2)CC1 -19.3%
COc1ccccc1C(=O)Nc1c(C(=O)N2CCN(c3ccc(F)cc3)CC2)oc2ccccc12 0.607%
CCN1CCN(CCCNC(=O)Cn2c(-c3cccs3)cc3ccccc32)CC1 -6.81%
Cc1ccc2c(=O)cc(C(=O)N(Cc3ccccc3Cl)C3CCS(=O)(=O)C3)oc2c1 (centres undefined) -4.3%
COc1ccc(-c2cc(-c3ccccc3)c(C#N)c(SCC(O)CS(=O)(=O)Cc3ccccc3)n2)cc1 (centres undefined) -15.2%
CC(O)CNC(=O)C(=O)Nc1c2c(nn1-c1ccc(Cl)cc1)CSC2 (centres undefined) -16.5%
COc1ccc(NC(=O)C2CCCN(C(=O)c3cnn(-c4ccccc4)c3-n3cccc3)C2)cc1 (centres undefined) -48%
CCOc1ccc(CCNC(=O)CS(=O)(=O)Cc2nc(-c3cccc(Cl)c3)oc2C)cc1 -26.7%
Cc1ccc(C(=O)NCC(=O)OCc2cc(=O)n3c(C)csc3n2)cc1 0.555%
CCOC(=O)CCN(c1ccccc1)S(=O)(=O)c1cc(-c2cc(C)no2)ccc1C -31.1%
CCc1cc2c(cc3c(=O)n(CC(=O)NC4CCCCC4)nc(CC)n32)s1 1.53%
Cc1cn(C)c(CC(=O)N2CCN(c3cccc(C(F)(F)F)c3)CC2)c1C(=O)O -20.5%
Cc1cc(C)c2oc(C(=O)Nc3c(C)n(C)n(-c4ccccc4)c3=O)cc(=O)c2c1 13.8% [at 11.5 µM, percent change from vehicle, -100% = no light]
O=C(NCC(c1cccnc1)N1CCc2ccccc21)c1ccc(F)c(F)c1 (centres undefined) -26.6%
CC(=O)N1CCc2c(sc3c2c(=O)n(-c2ccccc2C)c(=O)n3CC(=O)c2ccccc2)C1 -36.1%
Cc1ccc(C)c(NC(=O)Cn2c(=O)n(-c3ccccc3C)c(=O)c3c2c2cc(C)ccc2n3C)c1 -18.3%
CC(C)n1cc2c(c1-c1ccccc1Cl)c(=O)n(C)c(=O)n2C -13.8%
Cc1cccc(C(=O)Nc2cccc(OCc3cc(=O)n4cc(C)sc4n3)c2)c1 -4.55%
Cc1ccc(C(C)C)c(OCC(=O)NCC2(N3CCOCC3)CCCCC2)c1 -37.9%
Cc1ccc(-n2cc3c(c2-c2ccccc2Br)c(=O)n(C)c(=O)n3C)cc1N -12.1%
Cc1ccc(CNS(=O)(=O)c2ccc(-c3cnc(C4CC4)o3)cc2)cc1 -24.3%
CCc1cccc(NC(=O)Cn2c(=O)c(C(F)(F)F)nc3ccccc32)c1 9.18%
NC(=O)c1cccc(N)c1 -6.39%
Cc1cccc(CSc2nc3cc(C(=O)NC4CCCC4)ccc3c(=O)n2Cc2ccccc2)c1 -4.96%
Cc1cc(C)c2c(=O)cc(C(=O)Nc3nc4ccc(F)cc4s3)oc2c1 9.12%
CCCN(CCC)CC(O)Cn1cc(/C=C/C(=O)c2ccc(OC)cc2)c2ccccc21 (centres undefined) -36%
Cc1ccc(C(=O)Oc2ccc(C(O)CNC(C)(C)C)cc2OC(=O)c2ccc(C)cc2)cc1 (centres undefined) -10.4%
CCC(CC)C(=O)Nc1c(C(=O)N2CCN(c3ccccc3)CC2)oc2ccccc12 -34.3%
COC(=O)c1ccc(NC(=O)CCc2c(C)nn(-c3ccc(N4CCOCC4)nn3)c2C)cc1 8.16%
O=C(Nc1ccc(F)cc1)c1ccc(Cn2nc(N3CCN(c4ccccc4)CC3)ccc2=O)o1 -42%
COc1ccc(CCNc2nc(-c3ccc(Cl)cc3)cc(C(F)(F)F)n2)cc1OC -38.2%
CCOC(=O)c1c(C)[nH]c(C)c1S(=O)(=O)N1CCC(C(=O)N2CCN(c3cccc(C)c3C)CC2)CC1 -26.5%
COc1ccccc1-c1nc2c(c(SCc3ccc(F)cc3Cl)n1)Cc1c(CO)cnc(C)c1O2 -9.41%
CCc1ccc(NC(=O)c2sc3nc4c(cc3c2N)CN(CC)CC4)cc1 -13.2%
COc1ccc(Cl)cc1NC(=O)Cc1coc2c(C)c(C)ccc12 -28%
N=c1n(CCO)c2ccccc2n1Cc1ccccc1F -13.3%
O=C(CSc1c2c(nc3ccc(Cl)cc13)CCCC2)NCc1ccccc1Cl -17.5%
COc1ccc(CCNC(=O)c2cc(=O)c3cc(C)cc(C)c3o2)cc1OC 9.1% [at 11.5 µM, percent change from vehicle, -100% = no light]
O=C(OCc1ccco1)c1ccc2c(c1)N(Cc1cccc(F)c1)C(=O)c1ccccc1S2 -35.4%
COc1ccc(Br)c(C(=O)Nc2cc3c(cc2N2CCCC2)n(C)c(=O)c(=O)n3C)c1 -5.75%
Cc1ccc(-c2cc(C(=O)OCC(=O)c3ccccc3)c3cccc(Cl)c3n2)cc1 24.9%
CCC(Sc1nc2ccccc2c2nc(CCn3c(C)nc4ccccc43)nn12)C(=O)Nc1ccc(F)cc1 (centres undefined) -6.83%
CCCCNC(=O)c1cccc(-n2cnc3cccnc32)c1C 2.47%
CC1CCCCN1C(=O)c1ccc2c(c1)N(Cc1cccc(Cl)c1)C(=O)c1ccccc1S2=O (centres undefined) -28.6%
Cc1cc(N(C)Cc2ccccc2)n2nc(-c3ccc(C(C)(C)C)cc3)nc2n1 -13.8%
Cc1ccc(-n2nc(C(C)(C)C)cc2NC(=O)Nc2ccc(OCCN3CCOCC3)c3ccccc23)cc1
COc1ccc(OCCn2nnc3sc4c(c3c2=O)CCC(C(C)(C)C)C4)cc1 (centres undefined) -3.03%
CC1CCN(c2nc3c(-c4cccc(Br)c4)nnn3c3ccccc23)CC1 1.84%
CCc1ccc(-n2nc3cc(C)c(NC(=O)c4ccccc4C)cc3n2)cc1 9.48%
CCOc1ccc(-c2c(C)nn3c(C)c(C(=O)NCc4ccc(Cl)cc4)cnc23)cc1OCC -22.4%
CCC(NC(=O)Nc1cc(Cl)ccc1OC)c1c(-n2cccc2)sc2c1CCN(C)C2 (centres undefined) -14%
CCCCCn1c(=O)[nH]c2cc(C(=O)NCCN(C)CCCC)ccc2c1=O -8.81%
COc1cc(NC(=O)c2cnn(-c3cccc(F)c3)c2C2CCNCC2)cc(OC)c1OC -0.101%
CCc1nnc(NC(=O)CSCc2cc(=O)c3ccc(C)cc3[nH]2)s1 -18.2%
Cc1cc(O)c(C(c2ccccc2Cl)N2CCN(c3ccccc3)CC2)c(=O)n1Cc1ccco1 (centres undefined) 14.3%
Cc1ccc(C)c(NC(=O)CCCn2nc(C)c3sc4ccccc4c3c2=O)c1 -0.0111%
COc1cc(CN(C(=O)COc2ccc(C)c(C)c2)c2ccccn2)cc(OC)c1OC -30.4%
COc1ccc(NC(=O)CN(Cc2ccccc2)S(=O)(=O)c2ccc3nc(C)sc3c2)cc1 -21.3%
CCCN(CCC)CCNC(=O)c1cc2c(-c3ccccc3F)nn(C)c2s1 -16.3%
CNC(=O)c1ccc(C)c(-n2c(C)cc(OCc3ccc(F)cc3F)c(Br)c2=O)c1 1.79%
O=C(CSc1oc(-c2ccco2)nc1S(=O)(=O)c1ccc(Cl)cc1)c1ccc(Cl)cc1 -16.9%
Cc1ccc2oc(=O)c3cc(C(=O)N(Cc4ccccc4)C(C)C)sc3c2c1 -15.9%
Cc1ccc(CN2c3ccccc3S(=O)(=O)c3ccccc32)cc1 -18.1%
COc1ccc(CNC(=O)CC2N=C3c4ccccc4N=C(SCC(=O)Nc4ccc(N(C)C)cc4)N3C2=O)cc1 (centres undefined) -30.3%
Cc1ccc(NC(=O)Cn2c(-c3ccc4c(c3)OCO4)cn(-c3ccccc3)c2=O)cc1 26.8%
Cc1ccc2c(c1)c1c(c(=O)n(Cc3ccccc3)c(=O)n1CC(=O)Nc1ccccc1C)n2C -14.8%
COC1=C2C[C@@H](C)C[C@H](OC)[C@@H](O)[C@@H](C)C=C(C)[C@H](OC(N)=O)[C@@H](OC)C=CC=C(C)C(=O)NC(=CC1=O)C2=O -65%
COc1ccc(-c2c3c(=O)n(C)c(=O)n(C)c3c3c(-c4ccc(C)cc4)nc4ccccc4n23)cc1 8.66% [at 11.5 µM, percent change from vehicle, -100% = no light]
CCC(C(=O)Nc1cccc(C#N)c1)n1c(=O)c(-c2ccccc2NC(C)=O)nc2ccccc21 (centres undefined) -51.7%
CCN1CCC(N(Cc2cccc(OC)c2)C(=O)Nc2ccc(C)cc2Cl)CC1 -10.4%
COC(=O)C1=C(C)NC(C)=C(C(=O)OCCc2ccc(N3CCN(C(c4ccccc4)c4ccccc4)CC3)cc2)C1c1cccc([N+](=O)[O-])c1 (centres undefined) -3.37%
Cc1ccc(CSc2nc(=O)c3c(n2C)NC(=O)CC3c2ccc(OC(C)C)cc2)cc1 (centres undefined) -24.9%
CCCCCNC(=O)C(=O)NCC(c1ccc2c(c1)OCO2)N1CCOCC1 (centres undefined) -11.5%
Cc1ccc(S(=O)(=O)Nc2cc3c(cc2N2CCOCC2)n(C)c(=O)n3C)c(C)c1 -21.6%
CCn1cc(C(=O)NCCc2ccccc2)c(=O)c2cc(S(=O)(=O)N(C)C3CCCCC3)ccc21 -11.1%
